The values below come from the supplement of paper PMC11880418.

The structures appear in SMILES notation. Counter-ions that a name gives are not always drawn. This is one part of the list. The data scatter; read single values as rough.

Test in all cases: ALDHbr (CSC) cell proportion score relative to DMSO vehicle (ratio to DMSO); breast (SUM159) / gastric (MKN45) / pancreatic (PANC1) / colon cancer lines; ALDHbr cells have high ALDH activity and are rich in cancer stem cells (CSC); higher = more CSC (ALDHbr) cells remaining
Details in all cases: 10 µM; 72 h

The test system of assay [1] is MKN45.
Assay [2] concerns PANC1.
Assay [3] deals with SUM159.
Assay [4] concerns T84.
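Further: High-content imaging of ALDEFLUOR-stained cells with Hoechst-labelled nuclei in 384-well plates, triplicate wells, scored as Z-score against 0.1% DMSO vehicle, negative meaning fewer ALDHbr cells.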

On to `CCC(=O)O[C@@](Cc1ccccc1)(c1ccccc1)[C@@H](C)CN(C)C` [Levopropoxyphene napsylate], for which the ALDHbr came to 1.22 in assay [1], 1.01 in assay [2], 0.741 in assay [3] and 0.924 in assay [4].
For the compound `N[C@@H]1C[C@H]1c1ccccc1` [Tranylcypromine hydrochloride], the ALDHbr in assay [1] was found to be 0.817; in assay [2], 0.856; in assay [3] it was 1.18; in assay [4] it was 0.933.
The like results for `CC[N+]1(C)CCCC(OC(=O)C(O)(c2ccccc2)c2ccccc2)C1` (configuration not stated) [Pipenzolate bromide] were, in that order, 1.04, 0.937, 0.979 and 0.931.
The matching figures for `CCCC(C)C1(CC)C(=O)NC(=O)NC1=O` (configuration not stated) [Pentobarbital]: 1.22, 0.952, 1.04 and 0.99.
For `C[C@]12CCC(=O)C=C1C=C[C@@H]1[C@@H]2CC[C@@]2(C)[C@H]1CC[C@@]2(O)CCC(=O)O` [Canrenoic acid potassium salt], the ALDHbr was determined as 0.854 in assay [1], 0.872 in assay [2], 1.15 in assay [3] and 0.959 in assay [4].
Turning to `CC(=O)NC1CCSC1=O` (racemic) [N-Acetyl-DL-homocysteine Thiolactone], the ALDHbr amounted to 1.02 in assay [1], 0.852 in assay [2], 1.22 in assay [3] and 0.995 in assay [4].
In the case of `C[C@]12COC(=O)C[C@@H]1CC[C@@H]1[C@@H]2CC[C@@]2(C)[C@H]1CC[C@]2(C)O` [Oxandrolone], the ALDHbr in assay [1] turned out to be 1; in assay [2] it was 0.895; in assay [3] it was 1.17; in assay [4], 0.896.
The matching figures for `NCCc1c[nH]c2ccc(O)cc12` [Serotonin hydrochloride]: 1.07, 0.965, 1.26 and 0.891.
For the compound `CCCC[N+]1(C)[C@@H]2CC(OC(=O)[C@H](CO)c3ccccc3)C[C@H]1[C@@H]1O[C@@H]12` (some centres not stated) [Butylscopolammonium (n-) bromide], the ALDHbr in assay [1] is 0.924; in assay [2], 0.97; in assay [3], 1.07; in assay [4], 0.785.
In the case of `O=c1[nH]c2ccccc2n1CCCN1CCC(n2c(=O)[nH]c3cc(Cl)ccc32)CC1` [Domperidone], the ALDHbr in assay [1] amounted to 0.976; in assay [2] it was 0.591; in assay [3], 0.707; in assay [4] it was 0.883.
In the case of `COc1ccc(CCN2CCC(Nc3nc4ccccc4n3Cc3ccc(F)cc3)CC2)cc1` [Astemizole], the ALDHbr in assay [1] turned out to be 0.328; in assay [2] it was 1.07; in assay [3], 0; in assay [4], 0.0323.
The matching figures for `C=C1CC[C@@]2(O)[C@H]3Cc4ccc(O)c5c4[C@@]2(CCN3CC2CC2)[C@H]1O5` [Nalmefene hydrochloride]: 1.05, 0.958, 1.02 and 1.05.
The like results for `C[C@]12CC[C@@H]3c4ccc(OC(=O)N(CCCl)CCCl)cc4CC[C@H]3[C@@H]1CC[C@@H]2O` [Estramustine] were, in that order, 0.797, 1.48, 1.69 and 0.147.
The like results for `CCCCCC[C@H]1C(=O)O[C@H](C)[C@H](NC(=O)c2cccc(NC=O)c2O)C(=O)O[C@@H](C)[C@@H]1OC(=O)CC(C)C` [Antimycin A] were, in that order, 0.309, 1.13, 1.23 and 0.674.
For `CC(=O)OCC(=O)[C@H]1CC[C@H]2[C@@H]3CC[C@H]4C[C@H](O)CC[C@]4(C)[C@H]3C(=O)C[C@]12C` [Alfadolone acetate], the ALDHbr in assay [1] is 1.06; in assay [2] it was 0.837; in assay [3], 0.751; in assay [4], 0.953.
For `C#C[C@]1(O)CC[C@H]2[C@@H]3CCC4=CC(=O)CC[C@]4(C)[C@H]3CC[C@@]21C` [Ethisterone], the ALDHbr in assay [1] stood at 0.883; in assay [2], 0.799; in assay [3], 0.963; in assay [4], 0.853.
Regarding `NCCCNCCSP(=O)(O)O` [Amifostine], the ALDHbr was found to be 1.06 in assay [1], 0.874 in assay [2], 1.17 in assay [3] and 0.922 in assay [4].
Consider `C[C@@H]1CN([C@H]2CC[C@](C#N)(c3ccc(F)cc3)CC2)CC[C@]1(C(=O)O)c1ccccc1` [Levocabastine hydrochloride], for which the ALDHbr in assay [1] came to 0.905; in assay [2], 0.776; in assay [3], 0.967; in assay [4] it was 0.911.
The matching figures for `CC(C)(C)NCC(O)c1ccccc1Cl` (configuration not stated) [Tulobuterol]: 0.939, 0.82, 2.33 and 1.03.
The like results for `CCOC(=O)c1cncn1[C@H](C)c1ccccc1` [Etomidate] were, in that order, 1.11, 0.94, 1.26 and 1.15.
Turning to `CCC1(c2cccc(O)c2)CCCCN(C)C1` (configuration not stated) [Meptazinol hydrochloride], the ALDHbr amounted to 1.11 in assay [1], 0.956 in assay [2], 0.902 in assay [3] and 0.949 in assay [4].
The like results for `C[C@]12CCC(=O)C=C1CC[C@@H]1[C@@H]2C(=O)C[C@]2(C)C(=O)CC[C@@H]12` [Adrenosterone] were, in that order, 0.338, 0.91, 0.9 and 0.891.
The matching figures for `CN1CCN(C(=O)OC2c3nccnc3C(=O)N2c2ccc(Cl)cn2)CC1` (configuration not stated) [Zopiclone]: 0.956, 0.908, 1.19 and 0.873.
The like results for `C[C@]12C/C(=C/O)C(=O)C[C@@H]1CC[C@@H]1[C@@H]2CC[C@@]2(C)[C@H]1CC[C@]2(C)O` [Oxymetholone] were, in that order, 0.756, 0.75, 0.664 and 0.712.
Take `COc1ccc(OC)c(C(O)C(C)N)c1` (configuration not stated) [Methoxamine hydrochloride]: the ALDHbr worked out at 1.01 in assay [1], 0.915 in assay [2], 1.18 in assay [3] and 0.989 in assay [4].
For `NC(=O)C[S+]([O-])C(c1ccccc1)c1ccccc1` (configuration not stated) [Modafinil], the ALDHbr in assay [1] amounted to 0.945; in assay [2] it was 0.864; in assay [3], 1.04; in assay [4] it was 0.852.
The like results for `C=CCC1(CC(C)C)C(=O)NC(=O)NC1=O` [Butalbital] were, in that order, 1.05, 0.928, 1.03 and 1.
Turning to `CC(=O)O[C@H]1CC[C@@]2(C)C(=CC[C@@H]3[C@@H]2CC[C@]2(C)C(=O)CC[C@@H]32)C1` [Dehydroisoandosterone 3-acetate], the ALDHbr in assay [1] was found to be 0.885; in assay [2] it was 0.907; in assay [3] it was 1.12; in assay [4], 1.11.
